Reference: PubChem BioAssay AID2202238 (Ras Initiative Chemistry Research Team, Frederick National …, 2025)
The other results are listed elsewhere or left out. Shown are side measurements of this screen, not its main read-out; they come without a call.

Molecular target: GTPase KRas (Homo sapiens) (UniProt P01116)
Assay: Cysteine mutants labelled by reactive fragments (mass read-out) (AID 2202238)
Parameters: protein at 5 µM with 500 µM competing thiol for 1.5 h
Details: KRAS G12D cysteine mutants, disulfide tethering, MALDI-TOF labeling, stronger effect = higher value, fragment at 500 µM
[1] = measured here: G60C mutant labeling
[2] = measured here: G75C mutant labeling
[3] = measured here: H94C mutant labeling
[4] = measured here: I36C mutant labeling
[5] = measured here: L120C mutant labeling
[6] = measured here: M67C mutant labeling
[7] = measured here: M72C mutant labeling
[8] = measured here: N26C mutant labeling
[9] = measured here: N86C mutant labeling
[10] = measured here: P121C mutant labeling
[11] = measured here: S122C mutant labeling
[12] = measured here: S136C mutant labeling

Chain of UniProt P01116 (P01116 whole entry, looked up, the tested form may be a part): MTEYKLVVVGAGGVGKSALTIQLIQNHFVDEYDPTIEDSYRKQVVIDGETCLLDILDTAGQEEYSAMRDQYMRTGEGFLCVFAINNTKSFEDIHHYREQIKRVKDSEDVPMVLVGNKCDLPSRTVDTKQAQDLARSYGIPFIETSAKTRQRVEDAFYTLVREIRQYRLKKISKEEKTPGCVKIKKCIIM

Row | SMILES | percent labeling [1] [%] | percent labeling [2] [%] | percent labeling [3] [%] | percent labeling [4] [%] | percent labeling [5] [%] | percent labeling [6] [%] | percent labeling [7] [%] | percent labeling [8] [%] | percent labeling [9] [%] | percent labeling [10] [%] | percent labeling [11] [%] | percent labeling [12] [%]
1 | CCC(C)c1ccccc1N1CC(C(=O)NCCS)CC1=O (stereo not given) | 52.6 | 25.3 | 45.3 | 31.6 | 34.1 | 45.5 | 44.6 | 41.2 | 26.3 | 38.6 | 31.1 | 74.5
2 | Cc1ccc(C)c(C(C(=O)NCCS)C(C)C)c1 (stereo not given) | 39.4 | 7.8 | 11.2 | 11.9 | 28.3 | 8.2 | 15.6 | 17 | 3.4 | 7.6 | 10.3 | 29.7
3 | CCN(Cc1c(CO)cnc(C)c1O)C(=O)CCS |  | 9.5 | 30.4 | 34.3 | 32.6 | 44.8 | 17.9 |  | 16.2 | 30.9 | 34.7 | 50.6
4 | O=C(CN1C(=O)NC2(CCCc3ccccc32)C1=O)NCCS (stereo not given) | 42.2 | 16 | 29.4 | 23.6 | 43.9 | 30.4 | 38 | 40.2 | 24.3 | 26.7 | 36.2 | 38.8
5 | CN(Cc1ncc(Cl)n1C)C(=O)CCS |  | 14 | 42.5 | 45.7 | 25.2 | 36.2 | 21.1 |  | 16.7 | 32 | 28.5 | 59.6
6 | O=C(CCS)N1CCc2nc(C3CCCCC3)[nH]c2C1 |  | 11.5 | 28 | 36.5 | 32.8 | 36 | 23.1 |  | 20.3 | 22.7 | 25.8 | 48
7 | O=C(CCS)N1CCC(c2csc(-c3ccc(Cl)cc3)n2)CC1 |  | 10.1 | 43.2 | 16.9 | 18.8 | 14.3 | 58.1 |  | 14.9 | 9.8 | 4.2 | 23.3
8 | O=C(CCC(=O)N1CCc2sccc2C1)NCCS | 27.6 | 11.7 | 22.8 | 15.6 | 28 | 24.7 | 12.1 | 24.3 | 15.9 | 21.1 | 20.5 | 27.6
9 | O=C(NCCS)C1CCN(CC(F)(F)F)C1 (stereo not given) | 22.1 | 9.1 | 24.3 | 15.4 | 25.1 | 24.3 | 11.3 | 32.6 | 22.7 | 24.4 | 25.7 | 38.4
10 | N#Cc1ccccc1Oc1ccc(C(=O)NCCS)cc1Cl | 27.1 | 15.2 | 12.6 | 0 | 9.3 | 7.7 | 34.4 | 25 | 10.3 | 7.5 | 5.3 | 9.1
11 | O=C(CCS)Nc1nn(Cc2ccc(F)cc2)cc1Cl |  | 16.8 | 33.9 | 36.2 | 35 | 51.1 | 36.4 |  | 33 | 29.6 | 24 | 43.8
12 | CCC(C)(NC(=O)CCS)c1nc2c(c(=O)[nH]1)CCCC2 (stereo not given) |  | 11.7 | 31.9 | 39.6 | 37.7 | 33.2 | 23.7 |  | 35.5 | 32.9 | 27.4 | 47.1
13 | O=C(CCS)N1CCC(c2nc(-c3ccccc3)no2)CC1 |  | 14.9 | 25.7 | 25.8 | 16.5 | 54.2 | 22.9 |  | 21.2 | 27.4 | 16.9 | 32.7
14 | O=C(CCc1ccc2c(c1)NC(=O)CO2)NCCS | 48.5 | 19.2 | 36.1 | 37.5 | 37.6 | 41.2 | 44.2 | 45.9 | 29.8 | 36 | 34.3 | 45.4
15 | O=C(CCS)N1CCn2c(cc3ccccc32)C1 |  | 13.7 | 8.4 | 11.1 | 5 | 19.2 | 3.7 |  | 0 | 2.5 | 0 | 14.1
16 | Cn1cc(C2CN(C(=O)CCS)CCO2)cn1 (stereo not given) |  | 9 | 23.3 | 30.8 | 28.1 | 26.9 | 13.5 |  | 13.4 | 28.5 | 26.5 | 43.1
17 | CC(CC(N)=O)c1ccc(NC(=O)CCS)cc1 (stereo not given) |  | 14.5 | 33.7 | 47.3 | 45.3 | 35.7 | 30.7 |  | 38 | 38.9 | 33.7 | 57.4
18 | O=C(NCCS)C1(C(F)(F)F)CC=CCO1 (stereo not given) | 43.1 | 18.1 | 30.4 | 24.6 | 37.3 | 26 | 31 | 33.4 | 37.4 | 33.5 | 31.2 | 41.3
19 | O=C(CCS)Nc1cc2ccccc2nc1Cl |  | 26.3 | 14.1 | 12.6 | 10.4 | 13.2 | 37.5 |  | 9.3 | 13 | 9.4 | 22.4
20 | O=C(NCCS)c1cc2c(=O)[nH]c3ccccc3c2s1 | 44.4 | 8.6 | 11.6 | 28.3 | 13.9 | 11.2 | 82.6 | 20.9 | 12.6 | 9.3 | 9.1 | 25.1
21 | O=C(CCS)NCCn1ccc(=O)[nH]c1=O |  | 9.4 | 21.5 | 36 | 31.4 | 26.9 | 11.3 |  | 19.7 | 35.1 | 37.7 | 52.1
22 | O=C(CCS)NCc1ccc(Oc2cccnc2)c(F)c1 |  | 20.6 | 39.2 | 42.4 | 36.5 | 46.1 | 58.7 |  | 32.9 | 33 | 28.1 | 47.7
23 | CCn1c(=O)[nH]c2cc(C(=O)NCCS)ccc2c1=O | 16.6 | 12.9 | 16.7 | 9.3 | 16.2 | 12 | 23.2 | 31.7 | 14.8 | 12.3 | 10 | 16.9
